Sequences and labels used below:
B1: AUAGGGG (DNA:RNA)
RNA: GGGAGACCGGAAUUCAGAUUGUCCAUAGGGGUUAAAUCCCGUCGUAGCCACCA
DNA 1: CAATCTGAATTCCGGTCTCCC
DNA 2: TGGTGGCTACGACGGGATT
B2: ACUUGUU (DNA:RNA)
RNA: B1 RNA with U26C, A27U, G28U, G30U, G31U
DNA 1: CAATCTGAATTCCGGTCTCCC
DNA 2: TGGTGGCTACGACGGGATT
B3: AUGUGCU (DNA:RNA)
RNA: B1 RNA with A27G, G28U, G30C, G31U
DNA 1: CAATCTGAATTCCGGTCTCCC
DNA 2: TGGTGGCTACGACGGGATT
B4: UCCAUGC (DNA:RNA)
RNA: B1 RNA with A25U, U26C, A27C, G28A, G29U, G31C
DNA 1: CAATCTGAATTCCGGTCTCCC
DNA 2: TGGTGGCTACGACGGGATT
B5: UGGAGCC (DNA:RNA)
RNA: B1 RNA with A25U, U26G, A27G, G28A, G30C, G31C
DNA 1: CAATCTGAATTCCGGTCTCCC
DNA 2: TGGTGGCTACGACGGGATT
B6: CCUCUAA (DNA:RNA)
RNA: GGGAGACCGGAAUUCAGAUUGUCCCCUCUAAUUAAAUCCCGUCGUAGCCACCA
DNA 1: CAATCTGAATTCCGGTCTCCC
DNA 2: TGGTGGCTACGACGGGATT
B7: AAAGACC (DNA:RNA)
RNA: B1 RNA with U26A, G29A, G30C, G31C
DNA 1: CAATCTGAATTCCGGTCTCCC
DNA 2: TGGTGGCTACGACGGGATT
B8: CCCCUAA (DNA:RNA)
RNA: B6 RNA with U27C
DNA 1: CAATCTGAATTCCGGTCTCCC
DNA 2: TGGTGGCTACGACGGGATT
B9: AGGACUA (DNA:RNA)
RNA: B1 RNA with U26G, A27G, G28A, G29C, G30U, G31A
DNA 1: CAATCTGAATTCCGGTCTCCC
DNA 2: TGGTGGCTACGACGGGATT
B10: UUACCAU (DNA:RNA)
RNA: B1 RNA with A25U, G28C, G29C, G30A, G31U
DNA 1: CAATCTGAATTCCGGTCTCCC
DNA 2: TGGTGGCTACGACGGGATT
B11: GUACCAU (DNA:RNA)
RNA: B1 RNA with A25G, G28C, G29C, G30A, G31U
DNA 1: CAATCTGAATTCCGGTCTCCC
DNA 2: TGGTGGCTACGACGGGATT
B12: AAUAACU (DNA:RNA)
RNA: B1 RNA with U26A, A27U, G28A, G29A, G30C, G31U
DNA 1: CAATCTGAATTCCGGTCTCCC
DNA 2: TGGTGGCTACGACGGGATT
B13: UUGCUCU (DNA:RNA)
RNA: B6 RNA with C25U, C26U, U27G, A30C, A31U
DNA 1: CAATCTGAATTCCGGTCTCCC
DNA 2: TGGTGGCTACGACGGGATT
B14: ACUCGUA (DNA:RNA)
RNA: B6 RNA with C25A, U29G, A30U
DNA 1: CAATCTGAATTCCGGTCTCCC
DNA 2: TGGTGGCTACGACGGGATT
B15: AAUCUGC (DNA:RNA)
RNA: B6 RNA with C25A, C26A, A30G, A31C
DNA 1: CAATCTGAATTCCGGTCTCCC
DNA 2: TGGTGGCTACGACGGGATT
B16: UGAAAUC (DNA:RNA)
RNA: B1 RNA with A25U, U26G, G28A, G29A, G30U, G31C
DNA 1: CAATCTGAATTCCGGTCTCCC
DNA 2: TGGTGGCTACGACGGGATT
B17: CGUGCAC (DNA:RNA)
RNA: B6 RNA with C26G, C28G, U29C, A31C
DNA 1: CAATCTGAATTCCGGTCTCCC
DNA 2: TGGTGGCTACGACGGGATT
B18: CGCACGC (DNA:RNA)
RNA: B1 RNA with A25C, U26G, A27C, G28A, G29C, G31C
DNA 1: CAATCTGAATTCCGGTCTCCC
DNA 2: TGGTGGCTACGACGGGATT
B19: GGCGUAG (DNA:RNA)
RNA: B1 RNA with A25G, U26G, A27C, G29U, G30A
DNA 1: CAATCTGAATTCCGGTCTCCC
DNA 2: TGGTGGCTACGACGGGATT
B20: AGUCACA (DNA:RNA)
RNA: B6 RNA with C25A, C26G, U29A, A30C
DNA 1: CAATCTGAATTCCGGTCTCCC
DNA 2: TGGTGGCTACGACGGGATT
B21: CUGCCGA (DNA:RNA)
RNA: B6 RNA with C26U, U27G, U29C, A30G
DNA 1: CAATCTGAATTCCGGTCTCCC
DNA 2: TGGTGGCTACGACGGGATT
B22: AUACCGU (DNA:RNA)
RNA: B1 RNA with G28C, G29C, G31U
DNA 1: CAATCTGAATTCCGGTCTCCC
DNA 2: TGGTGGCTACGACGGGATT
B23: GUGACUU (DNA:RNA)
RNA: B1 RNA with A25G, A27G, G28A, G29C, G30U, G31U
DNA 1: CAATCTGAATTCCGGTCTCCC
DNA 2: TGGTGGCTACGACGGGATT
B24: CCUUCCC (DNA:RNA)
RNA: B6 RNA with C28U, U29C, A30C, A31C
DNA 1: CAATCTGAATTCCGGTCTCCC
DNA 2: TGGTGGCTACGACGGGATT
B25: AGUAAUC (DNA:RNA)
RNA: B1 RNA with U26G, A27U, G28A, G29A, G30U, G31C
DNA 1: CAATCTGAATTCCGGTCTCCC
DNA 2: TGGTGGCTACGACGGGATT
B26: AAGUGGA (DNA:RNA)
RNA: B1 RNA with U26A, A27G, G28U, G31A
DNA 1: CAATCTGAATTCCGGTCTCCC
DNA 2: TGGTGGCTACGACGGGATT
B27: GAUAUCA (DNA:RNA)
RNA: B6 RNA with C25G, C26A, C28A, A30C
DNA 1: CAATCTGAATTCCGGTCTCCC
DNA 2: TGGTGGCTACGACGGGATT
B28: UCCACAU (DNA:RNA)
RNA: B6 RNA with C25U, U27C, C28A, U29C, A31U
DNA 1: CAATCTGAATTCCGGTCTCCC
DNA 2: TGGTGGCTACGACGGGATT
B29: UGUUAGU (DNA:RNA)
RNA: B1 RNA with A25U, U26G, A27U, G28U, G29A, G31U
DNA 1: CAATCTGAATTCCGGTCTCCC
DNA 2: TGGTGGCTACGACGGGATT
B30: CGAAACU (DNA:RNA)
RNA: B1 RNA with A25C, U26G, G28A, G29A, G30C, G31U
DNA 1: CAATCTGAATTCCGGTCTCCC
DNA 2: TGGTGGCTACGACGGGATT
B31: CGUGUUG (DNA:RNA)
RNA: B6 RNA with C26G, C28G, A30U, A31G
DNA 1: CAATCTGAATTCCGGTCTCCC
DNA 2: TGGTGGCTACGACGGGATT

Residue numbers refer to the chain shown, from its start. Some of the results follow.

This assay concerns the target T1, RBFOX1 RRM RbFoxmut (Fox-RRM*) (Homo sapiens, UniProt Q9NWB1 109-208, R118D;E147R;N151S;E152T).
T1 sequence: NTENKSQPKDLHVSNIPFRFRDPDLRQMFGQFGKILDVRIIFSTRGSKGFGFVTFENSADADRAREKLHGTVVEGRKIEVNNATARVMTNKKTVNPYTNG
Put plainly: EMSA; HiTS-Eq, 1 nM pool, 10 min; buffer printed only for the single-RNA assays: 10 mM Tris pH 7.5, 150 mM NaCl, 3.4 mM EDTA, 0.001% NP-40, 30 C. Conditions: tags: His6 N-terminal (pET28a); label: 5' 32P. Summed up:
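These values rest on relative association constants, computed from read-count changes of each RNA species versus the control reaction and normalised to the cognate motif. Reads came from free RNA recovered by 8% native PAGE after purified RbFox RRM (wild type or mutant) at increasing concentrations was equilibrated for 10 min in 50 µL with 1 nM of a 5′-radiolabelled pool with 7 randomized nucleotides and DNA-annealed flanks.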
A general note: Mobility shift assays separate free from complexed probe on a gel.
In the case of B1, the binding signal is 0.0891 KA relative to UGCAUGU.

B2: the binding signal was 0.156 KA relative to UGCAUGU.

Take B3: the binding signal was 0.132 KA relative to UGCAUGU.

On to B4, for which the binding signal was 0.13 KA relative to UGCAUGU.

With B5, the binding signal is 0.148 KA relative to UGCAUGU.

As to B6, the binding signal was 0.129 KA relative to UGCAUGU.

On to B7, for which the binding signal was 0.079 KA relative to UGCAUGU.

Turning to B8, the binding signal is 0.133 KA relative to UGCAUGU.

Regarding B9, the binding signal is 0.0812 KA relative to UGCAUGU.

With B10, the binding signal was 0.0766 KA relative to UGCAUGU.

Turning to B11, the binding signal was 0.0938 KA relative to UGCAUGU.

In the case of B12, the binding signal was 0.0965 KA relative to UGCAUGU.

As for B13, the binding signal was 0.0745 KA relative to UGCAUGU.

On to B14, for which the binding signal was 0.141 KA relative to UGCAUGU.

With B15, the binding signal is 0.0446 KA relative to UGCAUGU.

Take B16: the binding signal is 0.0522 KA relative to UGCAUGU.

For the molecule B17, the binding signal was 0.0939 KA relative to UGCAUGU.

As for B18, the binding signal is 0.117 KA relative to UGCAUGU.

Turning to B19, the binding signal is 0.106 KA relative to UGCAUGU.

B20: the binding signal is 0.0708 KA relative to UGCAUGU.

Turning to B21, the binding signal was 0.066 KA relative to UGCAUGU.

Turning to B22, the binding signal is 0.101 KA relative to UGCAUGU.

For B23, the binding signal was 0.0656 KA relative to UGCAUGU.

For B24, the binding signal is 0.057 KA relative to UGCAUGU.

As to B25, the binding signal is 0.0534 KA relative to UGCAUGU.

On to B26, for which the binding signal was 0.0619 KA relative to UGCAUGU.

On to B27, for which the binding signal is 0.0845 KA relative to UGCAUGU.

For the molecule B28, the binding signal is 0.114 KA relative to UGCAUGU.

B29: the binding signal was 0.196 KA relative to UGCAUGU.

Turning to B30, the binding signal is 0.0571 KA relative to UGCAUGU.

As for B31, the binding signal was 0.167 KA relative to UGCAUGU.

The values above are taken from article PMC9911399, “Two distinct binding modes provide the RNA-binding protein RbFox with extraordinary sequence specificity”.
